Test results from PubChem BioAssay AID504832 (National Center for Advancing Translational Sciences (NCATS), 2011).
The whole screen tested about 310,000 compounds, of which about 18,000 (5.8%) were called active. Inconclusive results, whose numbers are uncertain, are shown with a selection of clear calls. The call rests on the fitted dose curve; in most records, active means well fitted inhibition curve with a large enough effect; inconclusive means small, poorly fitted or top-dose-only effect, or another doubt; inactive means no such curve, though single readings can be large or run the other way. No potency is given beside an inconclusive call; the fits are too rough.

assay: Primary qHTS for delayed death inhibitors of the malarial parasite plastid, 48 hour incubation; settings: P. falciparum luciferase growth in erythrocytes; series mostly up to 28.7 µM
In short: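 Firefly luciferase activity from engineered P. falciparum reports growth; inhibitors lower the luminescent signal. Cultures contained 2% hematocrit erythrocytes at 0.1% final parasitemia.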
Potency means the concentration at half of the fitted maximal effect; tags describe the fitted curve by direction and shape.

SMILES | Potency
O=S(=O)(c1ccccc1)N1CCN(c2ncnc3scc(-c4ccccc4)c23)CC1 | inconclusive [inhibitor, partial curve]
CCOC(=O)NC(=O)/C(C#N)=C\NNc1ncc(C(F)(F)F)cc1Cl | inconclusive [inhibitor, single point]
Cn1c(Nc2cccc(Cl)c2)nc2ccccc21 | inconclusive [inhibitor, full curve, poor fit]
Cn1c(SCC(=O)c2ccc(-c3ccccc3)cc2)nnc1-c1ccco1 | inactive
CC1(C)Cc2c(sc3ncn(N)c(=N)c23)CO1 | inactive
Cc1ccc(C(=O)NC(NC(=O)c2ccc(C)cc2)c2cccc([N+](=O)[O-])c2)cc1 | inconclusive [inhibitor, single point]
O=C(CCOc1ccccc1)Nc1ccnn1C1CCN(C(=O)CCC(F)(F)F)CC1 | inconclusive [inhibitor, partial curve, poor fit]
Cc1onc(-c2c(Cl)cccc2Cl)c1C(=O)N1CCN(c2ccc(F)cc2)CC1 | inconclusive [inhibitor, single point]
CCOC(=O)C1=C(CN2CC(C)CC(C)C2)NC(=O)NC1c1ccc2c(c1)OCO2 (stereo not drawn) | inconclusive [inhibitor, single point]
Cc1nc(-c2noc(-c3ccc(Cl)cc3)n2)c(C(F)(F)F)o1 | inactive
CCCCC(=O)Nc1nc2c(OC)cc([N+](=O)[O-])cc2s1 | inconclusive [inhibitor, partial curve, poor fit]
COc1cc2nc(N3CCN(C(=O)[C@@H]4COc5ccccc5O4)CC3)nc(N)c2cc1OC | active: 15.1 µM
Cc1cc2n(n1)C(c1sccc1C)Nc1ccccc1-2 (stereo not drawn) | inactive
Cc1ccc(NC(=O)c2ccc(=O)[nH]c2)cc1S(=O)(=O)N1CCCCC1 | inconclusive [inhibitor, single point]
CCCc1cc(=O)oc2cc(C)cc(OCC(=O)NCC(O)c3ccccc3)c12 (stereo not drawn) | inconclusive [inhibitor, full curve]
CC(C)(C)c1csc(NC(=O)c2cccs2)n1 | inactive
CCCCCN(C(=O)CCC(=O)OCc1ccc(C(C)(C)C)cc1)c1c(N)n(CCCC)c(=O)[nH]c1=O | inconclusive [inhibitor, partial curve]
COc1cc(C(=O)N[C@H](C(=O)Nc2nnc(C3CC3)s2)C(C)C)cc(OC)c1OC | inconclusive [inhibitor, single point]
OC1(c2ccccc2)CCN(Cc2ccccc2)C2CCCCC21 (stereo not drawn) | active: 10.4 µM
Nc1ccc2nc(-c3cccnc3)[nH]c2c1 | inconclusive [inhibitor, single point]
CCOc1ccccc1Oc1cn[nH]c1-c1ccc(OC)cc1O | active: 11.7 µM
COc1ccc(NS(=O)(=O)c2csc(C(=O)N3CCCC3)c2)c(OC)c1 | inconclusive [inhibitor, full curve]
O=C(COC(=O)CNC(=O)c1ccc(Cl)cc1Cl)NC(=O)NC1CCCCC1 | inconclusive [inhibitor, single point]

SMILES | Potency
CC(=O)c1cc(CN2CCN(C(C)C)C(CCO)C2)cs1 (stereo not drawn) | inactive
Cc1ccc(-n2nc(C)cc2NC(=O)COc2cc(C)cc3oc(=O)c4c(c23)CCC4)cc1 | inconclusive [inhibitor, single point]
COc1cccc(/C=N/NC(=O)c2cccs2)c1 | inactive
COc1ccc(CCNC(=O)C(=O)NCCOc2ccccc2)cc1OC | inactive
Cc1cc(CNC(=O)COC(=O)Cn2[nH]c(=O)c3ccccc3c2=O)cc(C)c1O | inconclusive [inhibitor, single point]
COc1ccccc1/C=N/NC(=O)CNC(=O)c1ccccc1 | inactive
Cc1ccc(NC(=O)Nc2ccc(Cl)cc2)c(Br)c1 | inactive
Cc1ccc(C2C3=C(CC(C)(C)CC3=O)Nc3n[nH]c(C)c32)cc1 (stereo not drawn) | inconclusive [inhibitor, single point]
COC1CC2CCC(C)[C@](O)(O2)C(=O)C(=O)N2CCCCC2C(=O)OC(C(C)CC2CCC(O)C(OC)C2)CC(=O)C(C)/C=C(/C)C(O)C(OC)C(=O)C(C)CC(C)C=CC=C/C=C\1C (stereo partly drawn) | active: 3.79 µM
COc1ccc(C(=O)NCCC2=CCCCC2)cc1[N+](=O)[O-] | inactive
CCCCCC(=O)N1CC2(CC(c3cccc(NC(=O)CC(c4ccccc4)c4ccccc4)c3)=NO2)C[C@@H]1C(N)=O (stereo partly drawn) | inconclusive [inhibitor, single point]
N=c1ccn(Cc2ccc(F)cc2)cc1 | inconclusive [inhibitor, full curve]
Cc1c(/C=N/n2cnnc2)c2ccccc2n1CCOc1ccc(Cl)cc1 | inconclusive [inhibitor, partial curve, poor fit]
O=C(NCc1ccco1)c1cc2n(n1)C(C(F)(F)F)CC(c1ccc(Cl)c(Cl)c1)N2 (stereo not drawn) | inconclusive [inhibitor, single point]
S=C(NCCc1ccccc1)N1CCn2cccc2C1c1ccncc1 (stereo not drawn) | active: 10.4 µM
C=CCN1C(=O)c2ccccc2NC1c1ccc(Br)s1 (stereo not drawn) | active: 13.1 µM
N#CC(Cc1cccc(CC(C#N)(c2ccccc2)c2ccccc2)c1)(c1ccccc1)c1ccccc1 | active: 1.17 µM
OC(CNCC1(N2CCCCC2)CCCCC1)COc1ccc(Cl)cc1Cl (stereo not drawn) | active: 3.29 µM
Cc1ccc(C)c(OCc2nc3ccc(S(=O)(=O)Nc4c(C)n(C)n(-c5ccccc5)c4=O)cc3[nH]2)c1 | active: 11.7 µM
CCOC(=O)c1sc2nc(N3CCOCC3)c3c(c2c1N)CCN(Cc1ccccc1)C3 | inconclusive [inhibitor, partial curve]
COC(=O)c1cnn(-c2ccc(C(=O)Nc3cccc(C(C)=O)c3)cc2)c1N | inconclusive [inhibitor, single point]
COc1ccccc1N1CCN(C2CC(=O)N(c3ccccc3)C2=O)CC1 (stereo not drawn) | inconclusive [inhibitor, single point]
Cc1ccc(N(CC(=O)NCc2ccc3c(c2)OCO3)C(=O)c2csnn2)cc1 | inconclusive [inhibitor, single point]

SMILES | Potency
COC(=O)C1=C(c2ccc(-c3ccccc3)c(F)c2)C[C@@H]2CC[C@H]1N2C(=O)NCc1ccc(F)cc1 | active: 13.1 µM
O=C(Nc1nnc(CCN2CCOCC2)s1)C1CCCCC1 | inactive
O=C(Nc1ccc(C(F)(F)F)cc1[N+](=O)[O-])O[C@H]1[C@H](Cc2ccccc2)NS(=O)(=O)[C@H]2C[C@@H]3C=C[C@]12O3 | inconclusive [inhibitor, single point]
CC(=O)Nc1ccc(C(=O)COC(=O)c2nc3nc(C)cc(C)n3n2)cc1 | inactive
C=CCN(C(=O)CN1CCCCC1)c1nc(-c2ccccc2)cs1 | inconclusive [inhibitor, single point]
O=C(NCCC1=CCCCC1)c1cc(S(=O)(=O)N2CCOCC2)c(Cl)cc1Cl | inconclusive [inhibitor, single point]
CCN(CC(=O)Nc1ccc2c(c1)OCCO2)Cc1cc(=O)oc2cc(C)c(C)cc12 | inconclusive [inhibitor, single point]
O=C(Nc1cc(Sc2ccccn2)cc([N+](=O)[O-])c1)c1ccc([N+](=O)[O-])cc1 | active: 13.1 µM
COc1ccc2oc(=O)c(/C(C)=N/Nc3nc(-c4cc(C)ccc4C)cs3)cc2c1 | inactive
Cc1ccc(CNC(=O)C(=O)NCC2OCCN2S(=O)(=O)c2ccc3c(c2)OCCO3)cc1 (stereo not drawn) | inactive
CC(=O)OCC(=O)[C@@]12OC3(CCCC3)OC1CC1C3CCC4=CC(=O)C=C[C@@]4(C)[C@]3(F)C(O)C[C@]12C (stereo partly drawn) | active: 15.1 µM
COc1ccc(CC(=O)Nc2cccc(C(=O)Nc3cccc(C)c3)c2)cc1 | inconclusive [inhibitor, full curve]
Cc1cccc(C(=O)Nc2cccc(-c3cnc4ccccc4n3)c2)c1 | inconclusive [inhibitor, single point]
Cc1ccc(/C=C/c2onc(C)c2S(=O)(=O)N2CCC(C(=O)NC(C)(C)C)CC2)cc1 | inconclusive [inhibitor, partial curve, poor fit]
Cc1ccc(NC(=O)CN2CCC3(O)CCCCC3C2c2ccc3c(c2)OCO3)c(C)c1 (stereo not drawn) | active: 10.4 µM
COc1cccc(CN(C)C(=S)Nc2cccc(C)c2)c1 | inconclusive [inhibitor, partial curve, poor fit]
Cc1cc(C)cc(OCCn2c(C3CC(=O)N(c4ccccc4Cl)C3)nc3ccccc32)c1 (stereo not drawn) | inconclusive [inhibitor, single point]
O=C(NNC(=S)Nc1ccccc1Cl)c1ccccc1Br | inactive
O=C(CN1CCN(C(C(=O)Nc2ccc(Cl)cc2C(F)(F)F)c2ccccc2)CC1)NC1CC1 (stereo not drawn) | active: 3.29 µM
Cc1cc(Oc2cnn(C(C)(C)C)c(=O)c2Cl)cc(C(C)C)c1 | active: 11.7 µM
CN(c1ccccc1)S(=O)(=O)c1ccc(Cl)c(C(=O)Nc2nc3ccccc3[nH]2)c1 | inconclusive [inhibitor, single point]
COc1ccc(C(=O)Oc2ccc(N(C)S(=O)(=O)c3ccccc3)cc2)cc1[N+](=O)[O-] | inactive
